# Experimental data: PubChem BioAssay AID1030 (National Center for Advancing Translational Sciences (NCATS), 2008)
# The whole screen tested about 220,000 compounds, of which about 16,000 (7.3%) were called active. The shares of active, inactive and inconclusive entries below differ from those in the screen. Calls follow the shape of the dose curve; as a rule, active = well fitted inhibition curve with a large enough effect (not every such curve was filed as active); inconclusive = small, poorly fitted or top-dose-only effect, or another doubt; inactive = no such curve, though single readings can be large or run the other way. No potency is given beside an inconclusive call; the fits are too rough.
# Target: Aldehyde dehydrogenase 1A1 (Homo sapiens) (UniProt P00352)
# UniProt P00352, sequence (P00352 whole entry, looked up): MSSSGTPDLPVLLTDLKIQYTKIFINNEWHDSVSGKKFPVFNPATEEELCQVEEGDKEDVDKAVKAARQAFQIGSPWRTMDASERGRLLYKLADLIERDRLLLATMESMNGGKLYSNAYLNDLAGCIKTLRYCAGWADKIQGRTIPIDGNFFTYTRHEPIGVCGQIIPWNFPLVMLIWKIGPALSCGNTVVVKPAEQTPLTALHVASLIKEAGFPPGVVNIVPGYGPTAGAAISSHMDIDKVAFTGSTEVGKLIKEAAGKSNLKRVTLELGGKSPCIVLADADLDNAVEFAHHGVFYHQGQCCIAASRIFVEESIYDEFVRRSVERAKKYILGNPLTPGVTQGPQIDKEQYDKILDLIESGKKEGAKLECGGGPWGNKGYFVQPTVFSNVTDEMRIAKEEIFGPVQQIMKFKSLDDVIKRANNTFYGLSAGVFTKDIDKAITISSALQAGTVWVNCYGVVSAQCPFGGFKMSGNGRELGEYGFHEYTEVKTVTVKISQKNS
# Assay: qHTS Assay for Inhibitors of Aldehyde Dehydrogenase 1 (ALDH1A1)
# Conditions: Purified ALDH1A1, NADH fluorescence, propionaldehyde substrate; series mostly up to 75.3 µM
# Potency is read from the fitted curve at half-maximal effect; tags tell the direction and shape of the fitted curve.
row,SMILES,Potency
1,CC(C)NC(=O)/C(C#N)=C\c1ccc(N(C)C)o1,"inconclusive [inhibitor, partial curve]"
2,Cc1ccc2sc3ccc(NC(=O)c4ccccc4Cl)cc3c(=O)c2c1,"inconclusive [inhibitor, partial curve]"
3,CCCS(=O)(=O)N1CCN(Cc2ccccc2C(F)(F)F)CC1,"inconclusive [inhibitor, single point]"
4,CC1(C(=O)NCCN2CCOCC2)C=CC2(CCCCC2)N1C(=O)c1ccccc1 (centres undefined),inactive
5,COc1cccc(NC(C)C(=O)Nc2cc([N+](=O)[O-])ccc2Cl)c1 (centres undefined),inactive
6,COc1cc(NC(=O)c2cc3nc(C)cc(C)n3n2)c(OC)cc1Cl,"inconclusive [inhibitor, partial curve]"
7,O=C(CCn1c(=O)c2ccccc2n(CC(=O)NC2CCCC2)c1=O)NCCc1ccc(Cl)cc1,inactive
8,COc1cc2c(cc1OC)C(C(=O)NCC1COc3ccccc3O1)C(c1cccnc1)N(C)C2=O (centres undefined),inactive
9,CC(C)OC(=O)C1CC=CCC1C(=O)Nc1ccc(Cl)cc1 (centres undefined),inactive
10,CCOC(=O)COc1c(Cl)cc(C2NC(=S)NC(c3ccccc3)=C2C(C)=O)cc1OC (centres undefined),"inconclusive [inhibitor, partial curve]"
11,CN(C)C(=O)CN1CCN(Cc2cn(C)nc2-c2ccc3c(c2)OCCO3)CC1,inactive
12,Cc1ccc(NC(=O)C(=O)NCCN2CCN(C(=S)Nc3ccccc3)CC2)cc1,inactive
13,COc1ccc(C(=O)N2CCCC(CCC(=O)NCc3ccc(F)c(F)c3)C2)o1 (centres undefined),active: 15.8 µM
14,Cc1ccc2[nH]c3c(c2c1)SC(C)(C)CC3=O,"inconclusive [inhibitor, single point]"
15,O=c1oc2cc(O)ccc2cc1-c1nc2c(s1)CCc1ccccc1-2,"inconclusive [inhibitor, partial curve]"
16,COc1ccc(CCNC(=O)c2c(C)cc(=O)oc2C)cc1OC,"inconclusive [inhibitor, single point]"
17,CC(O)CN1CC(O)=C(c2nc3ccccc3s2)C1=N (centres undefined),"inconclusive [inhibitor, single point]"
18,Cc1ccc(NC(=O)CSCc2ccco2)cc1,active: 22.4 µM
19,Cc1c(NC2(c3nnnn3-c3ccc(Br)cc3)CCCCC2)c(=O)n(-c2ccccc2)n1C,"inconclusive [inhibitor, partial curve]"
20,COc1cccc(C(=O)N2CCN(C3CCN(Cc4ccccc4)CC3)CC2)c1,"inconclusive [inhibitor, partial curve]"
21,O=C(CSC1=NCCS1)N1CCN(c2ccccc2)CC1,inactive
22,CCc1ccc(CCC(=O)Nc2ccc(S(N)(=O)=O)cc2)o1,"inconclusive [inhibitor, single point]"
23,N/C(=N\OC(=O)Nc1ccc(Cl)c(Cl)c1)c1ncc(C(F)(F)F)cc1Cl,active: 25.1 µM

row,SMILES,Potency
1,CC(C)CNc1oc(-c2ccccc2Cl)nc1C#N,"inconclusive [inhibitor, single point]"
2,CCOc1cc(/C=C(\CC(=O)O)c2nc3ccccc3s2)ccc1OC,"inconclusive [inhibitor, single point]"
3,CCN(CC)S(=O)(=O)c1ccc(N2CCCC2)c(NC(=O)c2ccc(OC)cc2OC)c1,"inconclusive [inhibitor, partial curve]"
4,Cn1c2ccccc2n2c(=O)c(=O)n(CC(=O)N3CCCc4ccccc43)nc12,"inconclusive [inhibitor, single point]"
5,C=CCN1C(=O)C(O)(CC(=O)c2ccc(Cl)cc2)c2ccccc21 (centres undefined),active: 0.447 µM
6,O=C1c2sc3nc4ccccc4n3c2C(=O)N1c1ccccc1Cl,active: 15.8 µM
7,COc1ccc(O)c(/C=c2/sc3nc4cc(C)c(C)cc4n3c2=O)c1,"inconclusive [inhibitor, partial curve]"
8,COc1ccc(CCNC(=O)C2CCN(S(=O)(=O)N3CCCCC3)CC2)cc1OC,"inconclusive [inhibitor, single point]"
9,Cc1ccc(S(=O)(=O)NC2(C(=O)O)CCCCC2)cc1,"inconclusive [inhibitor, single point]"
10,O=C(Nc1nc(=O)c2ccccc2s1)c1ccc(F)cc1,"inconclusive [inhibitor, single point]"
11,COc1nccnc1NS(=O)(=O)c1ccc(N/C=C2\CCCCC2=O)cc1,"inconclusive [inhibitor, single point]"
12,CCCCn1c(SCC(=O)N2CCC(C(=O)OCC)CC2)nc2cc(S(N)(=O)=O)ccc21,"inconclusive [inhibitor, partial curve]"
13,O=C(Nc1ccc(S(=O)(=O)NCCc2ccccc2)cc1)c1ccc(Br)o1,inactive
14,O=C(Nc1ccc(OC(=O)c2ccco2)cc1)c1ccco1,inactive
15,COC(=O)c1cc(OC)c(OC)cc1NC(=O)c1c(-c2ccccc2Cl)noc1C,active: 28.2 µM
16,CCOC(=O)c1ccc(NC(=O)CSc2nnc(CNC(=O)c3ccccc3F)o2)cc1,"inconclusive [inhibitor, single point]"
17,Cc1ccc(CNC(=O)c2ccccc2N(C)S(C)(=O)=O)cc1,"inconclusive [inhibitor, single point]"
18,COC(=O)c1ccccc1NC(=O)c1noc2c1CCCC2,"inconclusive [inhibitor, partial curve, poor fit]"
19,COC(=O)c1[nH]c2cccc(OC)c2c1NC(=O)CCN1CCN(c2ccccc2F)CC1,"inconclusive [inhibitor, partial curve]"
20,CCNC(=S)Nc1cccc(F)c1C,"inconclusive [inhibitor, single point]"
21,CC1CCN(C(=O)CN(c2ccc(Oc3ccccc3)cc2)S(C)(=O)=O)CC1,"inconclusive [inhibitor, single point]"
22,c1ccc(CCn2nnnc2CN2CCN(C3CCCC3)CC2)cc1,inactive
23,Cc1ccc(C)c(N2CCN(c3ncnc4c3cnn4-c3ccccc3)CC2)c1,"inconclusive [inhibitor, single point]"

row,SMILES,Potency
1,CSc1nnc(-c2ccc(S(=O)(=O)N3CCOCC3)cc2)n1CC1CCCO1 (centres undefined),"inconclusive [inhibitor, partial curve]"
2,Cc1cccc(-n2cc(-c3ccccc3)c3c(N4CCOCC4)ncnc32)c1,active: 17.8 µM
3,Cc1ccc(CNC(=O)CCC2CCCN(Cc3ccc4cccc(F)c4n3)C2)o1 (centres undefined),"inconclusive [inhibitor, single point]"
4,O=S(=O)(c1ccccc1)c1nc(-c2ccco2)oc1NCc1ccccc1,"inconclusive [inhibitor, single point]"
5,O=c1[nH]nnc2sc3c(c12)CCCC3,"inconclusive [inhibitor, single point]"
6,c1ccc2sc(C3CCN(Cc4nnnn4Cc4ccc5c(c4)OCO5)CC3)nc2c1,"inconclusive [inhibitor, single point]"
7,Cc1ccc(-c2nnn(CC(=O)N(Cc3cccs3)C(C(=O)NC3CCCCC3)c3ccco3)n2)o1 (centres undefined),inactive
8,CSc1scc2c1-c1nc(SCC(=O)C(C)(C)C)ncc1CC2,"inconclusive [inhibitor, single point]"
9,CCN1CCN(C(=O)CCN2C(=O)c3ccccc3C2=O)CC1,"inconclusive [inhibitor, single point]"
10,Cc1ccsc1/C=N/n1c(-c2cccnc2)n[nH]c1=S,"inconclusive [inhibitor, partial curve]"
11,CCOC(=O)C1CCN(C(=O)c2ccc(N(C)S(=O)(=O)c3ccc(OC)cc3)cc2)CC1,"inconclusive [inhibitor, full curve]"
12,O=C(NCc1ccc(Cl)cc1)C1CCN(S(=O)(=O)c2cc([N+](=O)[O-])ccc2Cl)CC1,active: 1.41 µM
13,Cc1ccc(/C=C/C(=O)OCC(=O)Nc2cccc(S(=O)(=O)N(C)C)c2)o1,"inconclusive [inhibitor, single point]"
14,CCn1cc(C(=O)NCc2ccco2)c(=O)c2cc(S(=O)(=O)N3CCc4ccccc4C3)ccc21,active: 20 µM
15,CC1CCN(S(=O)(=O)c2ccc(C(=O)Nc3nnc(-c4ccccn4)o3)cc2)CC1,"inconclusive [inhibitor, single point]"
16,O=C(CSc1ccc(-c2ccco2)nn1)c1ccccc1,active: 8.91 µM
17,O=C(N/N=C/c1c(Cl)cccc1Cl)c1ccccc1F,inactive
18,COC(=O)c1c(N)sc2c1CCN(c1ncc(C(F)(F)F)cc1Cl)C2,"inconclusive [inhibitor, single point]"
19,CCCC1(c2ccccc2)NC(=O)N(CC(=O)Nc2sc(-c3ccccc3)cc2C(=O)OCC)C1=O (centres undefined),"inconclusive [inhibitor, single point]"
20,COc1ccc(C2CC(=O)n3nc(C45CC6CC(CC(C6)C4)C5)nc3S2)cc1OC (centres undefined),"inconclusive [inhibitor, single point]"
21,O=C(Nc1ccc(-n2nncc2-c2ccco2)cc1)c1cccc(F)c1,"inconclusive [inhibitor, single point]"
22,CCOC(=O)c1c(O)c2cc(Cl)ccc2n(CC)c1=O,active: 20 µM
23,CCCCNC(=O)CN1C(=O)C(CC)Oc2ccc(Cl)cc21 (centres undefined),"inconclusive [inhibitor, single point]"
